Reference: the RNAGym collection of RNA variant scans (doi:10.1073/pnas.2313332121)
This sample is rich in variants without activity.

B1: TPR 5TU (parent)
chain: GGAUCUUCUCGAUCUAACAAAAAAGACAAAUCUGCCACAAAGCUUGAGAGCAUCUUCGGAUGCAGAGGCGGCAGCCUUCGGUGGCGCGAUAGCGCCAACGUUCUCAACUAUGACACGCAAAACGCGUGCUCCGUUGAAUGGAGUUUAUCAUG

Variants of: B1
Assay: polymerase ribozyme fitness, log enrichment relative to wild type (log ratio); higher = more active; in vitro selection for triplet polymerase activity
How it was run: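 Libraries of mutants in each subunit of a heterodimeric triplet polymerase ribozyme were generated by PCR and transcribed. In triplicate, each went through one in vitro selection round: annealing with biotinylated primer, partner subunit and triplets; frozen incubation at −7 °C; gel excision of extended constructs; streptavidin-bead capture; RT-PCR. Fitness, taken from Illumina sequencing of input and output libraries, is the logarithm of a genotype's enrichment over wild-type enrichment, averaged across replicates with inverse-variance weights. The logarithm is base 2, and genotypes needed ≥10 input reads and ≥1 read per output to be kept.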

GGAUCUUCUCGAUGUAACAAAAAAGACAACUCUGCCACAAAGCUUGAGAACAUCUUCGGAUGCAGAGGCGGCAGCUUUCGGUGGCGAGAUAGCGCCAACGUUCUCAGCUACGACACGCAUAACGCGUGCUCCGUUGAAUGGAGUUUAUCAUG [C14G A30C G50A C76U C87A A107G U111C A120U] and GGAUCUUCUCGAUGUAACAAAAAAGACAAAUCUGCCACAAAGCUUGAGUGCAUCUUGGGAUGCAGAGGCGGCAGCCGUCGGUGGCGCGAUAGCGCCAACGUUCUCAACUAUGACACGCAAAACGCGUGCUCCGUUGAAUGGAGUUUAUCAUG [C14G A49U C57G U77G] cannot be ordered by “polymerase ribozyme fitness (log ratio)” value: ≤ -4.2 for the first, ≤ -4.2 for the second.

GGAUCUUCUCGAUGUAACAAAAAAGACAAAUCUGCCACAAUGCUUGAGAGCAUCUUCGGAUGCAGAGGCGGCAGCCUUCGGUGGCGCGAUAGCGCCAACGUUCUCAACUAUGACACGCCAAACGCGUGCUCGGUUGAAUGGAGUUUAUCAUG [C14G A41U A119C C132G] and GGAUCUUCUCGAUGUAACAAAAAAGACAAAUCUGCCACAAAGCUUGAGAGCCUCUUCGGAUGCAGAGGCGGCAGCCUUCGGUGGCGCGAUAGCGCAAACGUUCUCAACUAUGACACGCAUAACGCGUGCUCCGUUGGAUGGAGUUUAUCAUG [C14G A52C C96A A120U A137G] cannot be ordered by “polymerase ribozyme fitness (log ratio)” value: ≤ -4.2 for the first, ≤ -4.2 for the second.

GGAUCUUCUCGAUGUAACAAAAAAGACAGAUCUGCCCCAAAGCUUGAGAGCAUCUUCGGAUGCAGAGGCGGCAGCCCUCGGUGGCGCGAUAGCGUCAACGUUCUCAACUAUGACACGCAAAACGCGUGCUCCGUUGAAUGUAGUUUAUCAUG [C14G A29G A37C U77C C95U G141U] and GGAUCUUCUCGAUGUAACAAAAAAGACUAAUCUGCGACAAAGCUUGAGAGCAUCUUCGGAUGCAGCGGCGGCAGUCUUCGGUGGCGAGAUAGCGCCAACGUUCUCAACUAUGACACGCAAAACGCGUGCUCCGUUGAAUGGAGUUUAUCAUG [C14G A28U C36G A66C C75U C87A] cannot be ordered by “polymerase ribozyme fitness (log ratio)” value: ≤ -4.2 for the first, ≤ -4.2 for the second.

First: GGAUCUUCUCGAUGUAACAAAAAAGACAAAUCUGCCACAAAGCUUGCGAGCAUCUUCGGAUGCAGAGGCGGCAGCCUUCGGUGGCGCGAUAGCGCCAACGUUCUCAACUAUGACACGCAAAACGCGUGCUCCGUUGAAUGGAGUUUAUCAUG [C14G A47C]
Second: GGAUCUUCUCGAUGUAACAAAAAAGACAAAUCUGCCGCAAAGCUUGUGAGCAUCUUCGGAUGAAGAGGCGGCAGCCUUCGGUGUCGCGAUAGCGCCAACGUUCUCAACUAUGACACGCAAAACGCGUGCUCCGUUGAAUGGCGUUUAUCAAG [C14G A37G A47U C63A G84U A142C U151A]
The “polymerase ribozyme fitness (log ratio)” value of the first is higher: -2.35 for the first, ≤ -4.2 for the second.

GGAUCUUCUCGAUGUAACAAAAAAGACAUAUCUGCCACAAAGCUUGAGAGCAUCUUCGGAUGCAGAGACGGCAGCCUUCGAUGGCGCGAUAGCGCCAACGUUCUCAACUAUGACACGCAAAACGCGUGCUCCGUUGAAUGGAGUUUAUCAUG [C14G A29U G68A G81A] and GGAUCUUCUCGAUGUAACAAAAAAGACACAUCUGCCACAAAGCUUGAGAGCAUCUUCGGAUACAGAGGCGGCAGCCUUCGGUGUCGCGAUAGCGCCAAGGUUCUCAACUAUGACACGCAAAACGCGUGCUCCGUUGAAUGGAGUUUAUCAUG [C14G A29C G62A G84U C99G] cannot be ordered by “polymerase ribozyme fitness (log ratio)” value: ≤ -4.2 for the first, ≤ -4.2 for the second.

GGAUCUUCUCGAUGUAACAAAAAAGACAAAUCUGCCACAAAGCUUGAGAGCAUCUUCGGAUGCAGGGGCGGCAGCCUUCGGUGGCGCAAUAGCGCCAACGUUCUCAACUAUGACACUAAAAACGCGUGCUCCGUUGAAUGGAGUAUAUCAUG [C14G A66G G88A G117U C118A U145A] and GGAUCUUCUCGAUGUAACAAAAAAGACAAAUCUGCCACGAAGCUUGAGAGCAUCUUCGGAUGCAGAGGGGGCAGCCUUCGGUGGCGCGAUAGCGCCAACGUUCUCAACUAUGACACGCAAAACGCGUGCUCCGUUGAAUGGAGUUUAUGAUG [C14G A39G C69G C149G] cannot be ordered by “polymerase ribozyme fitness (log ratio)” value: ≤ -4.2 for the first, ≤ -4.2 for the second.

GGAUCUUCUCGAUGUAACAAAAAAGACAAAUCUGCCACGAAGCUUGAUAGCAUCUUUGGAUGCAGAGGCGCCAGCCUUCGGUGGCGCGAUAACGCCAACGUUCUCAACUAUGACACGCAAAACAUGUGCUCCGUUGAAUGGAGUUUAUCCUG [C14G A39G G48U C57U G71C G92A G124A C125U A150C] and GGAUCUUCUCGAUGUAACAAAAAAGACAAAUCUGCCACGAAGCUUGAGUGCAUCUACGGAUGCAGAGGCGGCAGCCUUCGUUGGCGCGAUAGCGCCAACGUUCUCAACUAUGACACGCAAAACGCGUGCUCCGUUGAAUGGAGUUUAUCAUG [C14G A39G A49U U56A G81U] cannot be ordered by “polymerase ribozyme fitness (log ratio)” value: ≤ -4.2 for the first, ≤ -4.2 for the second.

GGAUCUUCUCGAUGUAACAAAAAAGACAAAUCUGCCACAAAGCUUGAGAGCCUCUUCGGGUGCAGAGGCGGCAGCCUUCGGUGGCGCGAUGGGGCCAACGUUCUCAACUAUGACACGCAGAACGCGUGCUCCGUUGUAUGGAGUUUAUCAUG [C14G A52C A60G A91G C93G A120G A137U] and GGAUCUUCUCGAUGUAACAAAAAAGACAAAUCUGCCACAAAGCUUGAGAGCAUCUUCGGAUGCAGAGGCGGCAGCCUUCGGUGGCGCGGUAGCGCCAACGUUCUCAACUAUGACACCCAAAACGCGUGCUCCUUUGAAUGGAGUUUAUCAUG [C14G A89G G117C G133U] cannot be ordered by “polymerase ribozyme fitness (log ratio)” value: ≤ -4.2 for the first, ≤ -4.2 for the second.

Compared with GGAUCUUCUCGAUGUAACAAAAAAGACAAAUCUGCCACUAAGCUUGAGAGCAUCUUGGGAUGCAGAGGCGGCAGCCUUCGGUGGCGCGAUAGCGCCAACGUUCUCAACUAUGACACGCAAAACGCGUGCUCCGUUGAAUGGAGUUUAUCAUG [C14G A39U C57G], GGAUCUUCUCGAUGUAACAAAAAAGACUAAUCUGCCACAAAGCUUGAGAACAUCUUCGGAUGCAGAGGCGGCAGCCUUCGGUGGCGCGAUAGCGCCAACGUUCUCAACUAUGACACGCCAAACGCGUGCUCCGUUGAAUGGAGUUUUUCAUG [C14G A28U G50A A119C A147U] is lower in “polymerase ribozyme fitness (log ratio)” value: -4.06 for the first, ≤ -4.2 for the second.

In the case of GGAUCUUCUCGAUGUAACAAAAAAGACCAAUCUGCCACAAAGCUUGGGAGCAACUUCGGAUGCAGAGGCGGCAGCCUUCGGUGUCGCGAUAGCGCCAACGUUCUCAACUAUGACACGCAAAACGCGUGCUCCGUUGAAUGGAGUUUAUCAUG [C14G A28C A47G U53A G84U], the “polymerase ribozyme fitness (log ratio)” value is reported as ≤ -4.2.
